# Source: US6495376 (dated 2002)
# B1: GST (other)
# chain: not shown
# notes: Control protein; also called control GST
# Assays:
# [1] = target: T1, tau present in AD brain extracts (human, UniProt P10636-8 2-441, limits assumed, phosphorylated, pT231 among the sites (detected by CP9)); assay: GST pulldown, CP27 immunoblot
# T1 construct: also called AD-specific tau; AD tau
# [2] = target: T2, tau in paired helical filaments (PHFs) purified from AD brains (human, UniProt P10636-8 2-441, limits assumed, hyperphosphorylated, pT231 among the sites (detected by CP9)); assay: GST pulldown, CP27 immunoblot
# T2 construct: also called neurofibrillary tangles
binder,measurement,setting,value
B1,binding result,[1],no binding
same,binding result,[2],no binding
